# From US20220340642A1 (Kyowa Kirin, published 2022)
# Numbering of substitutions follows the chain as printed. In names and notes the source's numbering stands. Like-named read-outs stand apart in the source and are kept apart here.
# T1: soluble recombinant of human TL1A (His6, GS linker, Leu72-Leu251) (UniProt O95150 72-251)
# T1 chain: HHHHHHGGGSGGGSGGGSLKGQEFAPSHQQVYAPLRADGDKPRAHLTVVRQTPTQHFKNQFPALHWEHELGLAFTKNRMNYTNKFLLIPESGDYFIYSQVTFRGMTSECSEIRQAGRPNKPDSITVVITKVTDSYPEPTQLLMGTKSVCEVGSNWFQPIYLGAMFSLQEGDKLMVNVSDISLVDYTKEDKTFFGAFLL
# T2: soluble recombinant of human FasL (His6, Pro134-Leu281) (UniProt P48023 134-281)
# T2 chain: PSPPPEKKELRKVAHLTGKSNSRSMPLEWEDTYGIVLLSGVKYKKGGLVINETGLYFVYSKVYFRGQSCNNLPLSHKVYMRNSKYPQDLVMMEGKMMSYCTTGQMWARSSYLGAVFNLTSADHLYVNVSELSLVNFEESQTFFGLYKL
# T3: soluble recombinant of human LIGHT (His10, GS linker, Asp74-Val240)
# T3 chain: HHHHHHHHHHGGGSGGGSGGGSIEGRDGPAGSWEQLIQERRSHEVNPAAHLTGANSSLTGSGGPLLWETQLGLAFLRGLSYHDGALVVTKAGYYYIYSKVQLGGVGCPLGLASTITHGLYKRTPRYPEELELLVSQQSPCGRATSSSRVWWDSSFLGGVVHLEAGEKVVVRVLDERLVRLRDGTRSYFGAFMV
# T4: soluble recombinant of human LIGHT (His10, GS linker, Asp74-Val240) (human)
# T4 chain: T3 chain
# T5: soluble recombinant of human FasL (His6, Pro134-Leu281) (human, UniProt P48023 134-281)
# T5 sequence: T2 chain
# T6: soluble recombinant of human TL1A (His6, GS linker, Leu72-Leu251) (human, UniProt O95150 72-251)
# T6 construct: also called His6-TL1A; hTL1A
# T6 sequence: T1 chain
# B1: chimera A-Fc (g4PEK) (Fc fusion)
# chain: ETFPPKYLHYDEETSHQLLCDKCPPGTYLKQHCTAKWKTVCAPCPPRHYTQFWNYLERCRYCNVLCGEREEEARACHATHNRACRCRTGFFAHAGFCLEHASCPPGAGVIAPGTPSQNTQCQPCPDGFFSNETSSKAPCRKHTNCSVFGLLLTQKGNATHDNICSGNSESTQK[omitted - human IgG4 Fc with S228P L235E R409K (EU numbers)]
# notes: also called Chimera A-g4PEK
# B2: chimera A-E57K-Fc (g4PEK) (Fc fusion)
# chain: B1 chain with E57K
# B3: chimera A-R60K-Fc (g4PEK) (Fc fusion)
# chain: B1 chain with R60K
# B4: chimera A-E57L-Fc (g4PEK) (Fc fusion)
# chain: B1 chain with E57L
# Columns and labels:
# [1] = target: T7, FLAG-LIGHT (FLAG tag, human LIGHT Asp74-Val240) (human, UniProt O43557 74-240); assay: SPR, binder captured, trimer ligand
# T7 construct: SEC trimer fraction; also called soluble recombinant FLAG-LIGHT trimer; soluble human LIGHT trimer
# Method: The binding activities to human DcR3 trimer ligands were analyzed by the SPR method. BIAcore T-100 (GE Healthcare) was used for measurement of the binding activities to human LIGHT and human TL1A, and BIAcore T-100 (GE Healthcare) or BIAcore T-200 (GE Healthcare) was used for measurement of the binding activity to human FasL. As the buffer, HBS-EP+Buffer was used.
# After 10,000 RU of anti-human antibodies were immobilized to Series S Sensor Chip CM5 using Human Antibody Capture Kit (both of which are manufactured by GE Healthcare), various wild-type DcR3 controls and DcR3 variants were injected at the flow rate of 10 μL/min for 30 seconds and captured. Meanwhile, the buffer containing no protein was injected into a reference flow cell. Thereafter, as an analyte, each human DcR3 trimer ligand diluted to 0.02 to 80 nmol/L was injected at 30 μL/min for 2 minutes to monitor the binding, and subsequently the buffer was injected for 3 minutes to monitor dissociation. Then, 3 mol/L magnesium chloride was injected at 30 μL/min for 1 minute to perform a regeneration reaction.
# [2] = target: T1, soluble recombinant of human TL1A …; assay: BIAcore SPR
# Method in brief: (§1)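 On a BIAcore T-100 or T-200 instrument (GE Healthcare), with HBS-EP+ Buffer, surface plasmon resonance measured binding of each test molecule to soluble recombinant His-tagged LIGHT, TL1A or FasL. These proteins were of human or cynomolgus monkey origin. The dissociation constant (Kd, nM) was derived from the resulting data.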
# [3] = target: T2, soluble recombinant of human FasL …; assay: BIAcore SPR
# Method in brief: as §1
# [4] = target: T3, soluble recombinant of human LIGHT …; assay: BIAcore SPR
# Method in brief: as §1
# [5] = target: T1, soluble recombinant of human TL1A …; assay: SPR
# [6] = target: T2, soluble recombinant of human FasL …; assay: SPR
# [7] = target: T3, soluble recombinant of human LIGHT …; assay: SPR
# [8] = target: T4, soluble recombinant of human LIGHT …; assay: SPR, binder captured
# Method: (§2) Regarding each of the various wild-type DcR3 controls and the DcR3 variants shown in Table 9, the binding activities to DcR3 ligands (LIGHT, TL1A, FasL) were analyzed by the SPR method using BIAcore T-100 (GE Healthcare). As the buffer, HBS-EP+Buffer was used.
# (§3) After 10,000 RU of anti-human antibodies were immobilized to Series S Sensor Chip CM5 using Human Antibody Capture Kit (GE Healthcare), various wild-type DcR3 controls and DcR3 variants were injected at the flow rate of 10 μL/min for 30 seconds and captured. Meanwhile, the buffer containing no protein was injected into reference flow cells. Thereafter, as an analyte, DcR3 ligands of a human, a cynomolgus monkey or a mouse diluted to 0.08 to 80 nmol/L were injected at 10 μL/min for 2 minutes to monitor the binding, and subsequently the buffer was injected for 3 minutes to monitor dissociation. Then, 3 mol/L magnesium chloride was injected at 20 μL/min for 1 minute to perform a regeneration reaction. […] As a result of measurement, except for mouse LIGHT for which a trimer could not be produced, it was confirmed that various wild-type DcR3 controls and DcR3 variants bind to each DcR3 ligand of a human, a cynomolgus monkey or a mouse.
# [9] = target: T5, soluble recombinant of human FasL …; assay: SPR, binder captured
# Method: as §2, §3
# [10] = target: T6, soluble recombinant of human TL1A …; assay: SPR, binder captured
# Method: as §2, §3
# [11] = target: T1, soluble recombinant of human TL1A …; assay: BIAcore SPR
# [12] = target: T2, soluble recombinant of human FasL …; assay: BIAcore SPR
# [13] = target: T3, soluble recombinant of human LIGHT …; assay: BIAcore SPR
# [14] = target: T1, soluble recombinant of human TL1A …; assay: SPR
# [15] = target: T2, soluble recombinant of human FasL …; assay: SPR
# [16] = target: T3, soluble recombinant of human LIGHT …; assay: SPR
# [17] = target: T1, soluble recombinant of human TL1A …; assay: SPR
# [18] = target: T2, soluble recombinant of human FasL …; assay: SPR
# [19] = target: T3, soluble recombinant of human LIGHT …; assay: SPR
binder,measurement,setting,value
B1,binding result,[1],binds
same,Kd,[2],0.14 nM
same,Kd,[3],0.53 nM
same,Kd,[4],0.18 nM
same,koff,[5],0.000275 s⁻¹
same,koff,[6],0.000944 s⁻¹
same,koff,[7],0.000172 s⁻¹
same,Kd,[8],0.62 nM
same,koff,[8],0.00033 s⁻¹
same,kon,[8],540000 M⁻¹ s⁻¹
same,Kd,[9],1 nM
same,koff,[9],0.001 s⁻¹
same,kon,[9],1e+06 M⁻¹ s⁻¹
same,Kd,[10],0.42 nM
same,koff,[10],0.00036 s⁻¹
same,kon,[10],870000 M⁻¹ s⁻¹
B2,Kd,[11],0.35 nM
same,Kd,[12],3.2 nM
same,Kd,[13],0.33 nM
same,binding result,[8],binds
same,binding result,[9],binds
same,koff,[14],0.000366 s⁻¹
same,koff,[15],0.00475 s⁻¹
same,koff,[16],0.000224 s⁻¹
B3,koff,[17],0.000649 s⁻¹
same,koff,[18],0.00519 s⁻¹
same,koff,[19],0.000925 s⁻¹
same,binding result,[8],binds
same,binding result,[9],binds
same,binding result,[10],binds
B4,Kd,[11],0.27 nM
same,Kd,[12],2.6 nM
same,Kd,[13],0.28 nM
same,binding result,[8],binds
same,binding result,[9],binds
same,koff,[14],0.000422 s⁻¹
same,koff,[15],0.0091 s⁻¹
same,koff,[16],0.000209 s⁻¹
